According to PMC4336329 (PLoS ONE, 2015):
The whole screen tested about 310,000 compounds, of which about 14,000 (4.5%) showed an effect of 50% or more. The effect is printed as a negative number. The list shows a part of the results.

Each molecule was assayed against human ether-à-go-go-related gene (hERG) potassium channel (human, UniProt Q12809) (assay: primary screen, population patch clamp on CHO cells stably expressing hERG).
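Also: peak tail current of the secondary pulse compared with the same well before compound.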

Chain of human ether-à-go-go-related gene (hERG) potassium channel (Q12809 whole entry, looked up): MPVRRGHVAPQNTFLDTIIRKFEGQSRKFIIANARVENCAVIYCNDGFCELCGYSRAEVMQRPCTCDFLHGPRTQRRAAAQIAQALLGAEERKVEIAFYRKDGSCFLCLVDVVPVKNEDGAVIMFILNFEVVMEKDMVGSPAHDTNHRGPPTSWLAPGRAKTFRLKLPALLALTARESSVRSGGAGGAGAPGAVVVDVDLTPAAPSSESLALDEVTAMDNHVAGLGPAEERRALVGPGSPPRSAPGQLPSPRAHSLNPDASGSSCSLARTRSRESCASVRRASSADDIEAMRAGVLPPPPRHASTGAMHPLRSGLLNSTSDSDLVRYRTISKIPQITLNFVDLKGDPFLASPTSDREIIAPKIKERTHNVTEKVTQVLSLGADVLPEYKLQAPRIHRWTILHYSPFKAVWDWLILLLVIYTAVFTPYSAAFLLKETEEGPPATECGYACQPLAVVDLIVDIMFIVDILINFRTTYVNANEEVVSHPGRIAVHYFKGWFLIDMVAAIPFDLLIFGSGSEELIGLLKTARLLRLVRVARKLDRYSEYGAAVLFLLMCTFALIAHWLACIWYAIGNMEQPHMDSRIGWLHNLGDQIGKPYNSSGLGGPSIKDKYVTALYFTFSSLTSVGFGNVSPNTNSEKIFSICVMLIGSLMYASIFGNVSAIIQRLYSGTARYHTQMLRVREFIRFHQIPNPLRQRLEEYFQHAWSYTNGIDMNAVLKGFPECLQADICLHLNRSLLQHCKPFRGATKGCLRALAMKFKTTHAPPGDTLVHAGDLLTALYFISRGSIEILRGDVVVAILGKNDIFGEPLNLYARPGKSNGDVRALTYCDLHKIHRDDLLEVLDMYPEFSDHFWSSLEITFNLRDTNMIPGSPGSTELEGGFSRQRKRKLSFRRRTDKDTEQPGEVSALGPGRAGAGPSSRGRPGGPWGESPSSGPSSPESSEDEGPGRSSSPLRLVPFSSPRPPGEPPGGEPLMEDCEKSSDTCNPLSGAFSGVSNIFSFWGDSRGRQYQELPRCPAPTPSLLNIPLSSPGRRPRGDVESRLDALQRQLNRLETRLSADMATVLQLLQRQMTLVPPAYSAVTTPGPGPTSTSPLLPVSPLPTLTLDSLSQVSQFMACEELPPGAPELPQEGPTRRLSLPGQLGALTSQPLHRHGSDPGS

Compared with Cc1nnc(NC(=O)CN2C(=O)c3ccccc3S2(=O)=O)s1, CC(C)c1nnc(NC(=O)C2CCCN2C(=O)Nc2ccccc2)s1 (stereo not drawn) is higher in “hERG current change (%, negative = inhibition) at 10uM” value: -4.27% for the first, 17.3% for the second.

First: Cc1ccc2c(c1)c1c(n2CC2COC(C)(C)O2)C(=O)CCC1 (stereo not drawn)
Second: Cc1[nH]c2ccc(Br)cc2c(=O)c1CN1CCOCC1
The “hERG current change (%, negative = inhibition) at 10uM” value of the first is higher: -25.2% for the first, -27.2% for the second.

First: O=C(/C=C/c1c[nH]c2ccccc12)c1cccc2ccccc12
Second: Cn1c(/N=C/c2c[nH]c3ccccc23)nc2ccccc21
The “hERG current change (%, negative = inhibition) at 10uM” value of the first is lower: 7.95% for the first, 14.5% for the second.

Compared with Cc1cccc(OCC(O)CN2C(C)(C)CC(O)CC2(C)C)c1 (stereo not drawn), CCc1cccc(OCCCCN(CC)CC)c1 is lower in “hERG current change (%, negative = inhibition) at 10uM” value: -33.2% for the first, -37.9% for the second.

First: CCN(CC)C(=O)c1cc2c(=O)c3cc(F)ccc3oc2nc1C
Second: CCC(=O)N(CCc1ccccc1C)Cc1cc2ccc(C)cc2[nH]c1=O
The “hERG current change (%, negative = inhibition) at 10uM” value of the first is lower: -10.8% for the first, 9.02% for the second.

First: Nc1nonc1C(=O)NCCN=Cc1cc(Cc2ccccc2)cc(Br)c1O
Second: COC(=O)c1c(N)sc(Cc2ccccc2)c1C
The “hERG current change (%, negative = inhibition) at 10uM” value of the first is lower: -6.36% for the first, 4.35% for the second.

Going from CC(=O)Nc1ccccc1NC(=O)C/C(C)=N/NC(=O)c1ccc([N+](=O)[O-])c(Cl)c1 to O=C(CC(Nc1cccc(Cl)c1Cl)C(=O)O)c1ccccc1 (stereo not drawn), the “hERG current change (%, negative = inhibition) at 10uM” value falls from 25.1% to 6.53%.

Going from O=C(Nc1cccc(F)c1)c1ccc(Br)o1 to COc1cccc(NC(=O)c2ccccc2SC)c1, the “hERG current change (%, negative = inhibition) at 10uM” value falls from -10.8% to -13.5%.

First: COc1ccc(C(=O)N/C(=C\c2ccco2)C(=O)OCc2ccco2)cc1
Second: CC(C)Oc1ccc(C(CC(=O)NCc2ccco2)c2ccccc2)cc1 (stereo not drawn)
The “hERG current change (%, negative = inhibition) at 10uM” value of the first is lower: -22.2% for the first, 4.55% for the second.

Going from Cc1ccccc1C1=N/C(=C/c2cccs2)C(=O)O1 to O=C1c2ccccc2CN1c1ccccc1, the “hERG current change (%, negative = inhibition) at 10uM” value falls from 18.6% to 8.96%.

First: COc1ccccc1Cc1noc(-c2cc(Cl)ccc2OC)n1
Second: COc1cccc(NC(=O)c2cc3cccc(OC)c3o/c2=N\O)c1
The “hERG current change (%, negative = inhibition) at 10uM” value of the first is lower: 7.34% for the first, 9.1% for the second.

Compared with CCN1CCN(C(C(=O)NC2CCCC2)c2cc3c(cc2[N+](=O)[O-])OCO3)CC1 (stereo not drawn), CC1CCCCC1NC(=O)C1CCN(S(=O)(=O)N2CCOCC2)CC1 (stereo not drawn) is lower in “hERG current change (%, negative = inhibition) at 10uM” value: -1.51% for the first, -8.73% for the second.

Going from O=C(CCC(=O)Nc1ccccc1)NNS(=O)(=O)c1ccc(Cl)cc1 to O=C(Nc1ccc(Cl)cc1)N1CCSC1=NCc1ccccc1, the “hERG current change (%, negative = inhibition) at 10uM” value rises from 6.88% to 14.3%.

Going from COc1cccc(/C=C/C(=C2/C(=O)N(c3ccccc3)N=C2C)c2ccc(C)cc2)c1OC to Cc1ccc(CN(C)C(=O)c2ccccc2Sc2ccccc2C#N)cc1, the “hERG current change (%, negative = inhibition) at 10uM” value rises from 5.82% to 23.4%.

Going from Cc1ccc(/C=N/Nc2nc(C(C)(C)C)cs2)o1.Cl to Cc1ccc(NC(=O)COc2nc(C)cs2)cc1, the “hERG current change (%, negative = inhibition) at 10uM” value rises from -22.5% to 9.14%.

Compared with O=C1CSCC(=O)N1Cc1ccc(Cl)c(Cl)c1, Cc1cc(Cl)nc(Cl)c1C(=O)NCc1ccc(Cl)cc1 is lower in “hERG current change (%, negative = inhibition) at 10uM” value: -7.26% for the first, -17.4% for the second.

Going from CC(C)(C)c1ccc(-n2ncc3c2CCCC3NC(=O)CN2CCCC2=O)cc1 (stereo not drawn) to CC(C)(C)c1nnc(SCC(=O)Nc2ccc(N3CCCCC3)cc2)n1N, the “hERG current change (%, negative = inhibition) at 10uM” value rises from -6.16% to 3.83%.

Compared with O=C1NCCCCC1NS(=O)(=O)c1cccc2ccccc12 (stereo not drawn), CC(C)(C)c1ccc(S(=O)(=O)N2CC3CC(C2)c2cccc(=O)n2C3)cc1 (stereo not drawn) is lower in “hERG current change (%, negative = inhibition) at 10uM” value: 6.62% for the first, -15.6% for the second.

Compared with O=C(/C=C/c1cccs1)Nc1ccc(Br)cn1, C/C(=N\NC(=O)c1ccccc1O)c1cccs1 is lower in “hERG current change (%, negative = inhibition) at 10uM” value: 14.7% for the first, 1.88% for the second.

Compared with N#Cc1ccc(CSc2nc(N)cc(=O)[nH]2)cc1, Br.Cc1ccc(C(=O)CSc2nc3c([nH]2)c(=O)n(C)c(=O)n3C)cc1 is higher in “hERG current change (%, negative = inhibition) at 10uM” value: -35.6% for the first, -5.44% for the second.

First: CC1CCCC(N2CCN(C(=O)c3ccc(F)cc3)CC2)C1 (stereo not drawn)
Second: CCO[C@@H]1OC(C(=O)N2CCN(C)CC2)=C[C@H](C2CCCCC2)[C@H]1CCCO
The “hERG current change (%, negative = inhibition) at 10uM” value of the first is lower: -44.1% for the first, 0.0207% for the second.

First: CCN(CC)C1CCN(c2nc3nonc3nc2NCCOC)C1 (stereo not drawn)
Second: CCOC(=O)C1CCCN(Cc2ccc(OCC)cc2)C1 (stereo not drawn)
The “hERG current change (%, negative = inhibition) at 10uM” value of the first is higher: -3.27% for the first, -42.9% for the second.

Going from Cc1ccc(NC(=O)N(CCCN2CCOCC2)Cc2cccnc2)cc1C to CCn1ccnc1CN1CCCCC1C(=O)Nc1ccc(Oc2cccnc2)cc1 (stereo not drawn), the “hERG current change (%, negative = inhibition) at 10uM” value falls from -10.8% to -31.3%.

First: CSCCC(NC(=O)c1ccco1)C(=O)Nc1ccncc1 (stereo not drawn)
Second: CCc1cc2ccc(C)cc2nc1SCC(=O)NNC(=O)c1ccco1
The “hERG current change (%, negative = inhibition) at 10uM” value of the first is lower: 5.38% for the first, 12% for the second.

First: O=C(COc1ccccc1-c1ccccc1)NCCN1C(=O)S/C(=C\c2cccnc2)C1=O
Second: O=C(NNC1CC(=O)N(c2ccccc2)C1=O)c1ccc(COc2ccccc2Cl)o1 (stereo not drawn)
The “hERG current change (%, negative = inhibition) at 10uM” value of the first is higher: -13.5% for the first, -42.3% for the second.

Compared with Cc1cc(C)c2c(N)c(C(=O)c3ccccc3)oc2n1, COc1c(C)cc(Br)cc1C(=O)Nc1ccccc1C is higher in “hERG current change (%, negative = inhibition) at 10uM” value: -10.2% for the first, 9.28% for the second.

Going from Cn1c(N)c(C(=O)COC(=O)c2cc(C(F)(F)F)nc3ccccc23)c(=O)n(C)c1=O to O=C(COC(=O)c1cc(Cl)ccc1O)NC(=O)NCc1ccccc1, the “hERG current change (%, negative = inhibition) at 10uM” value rises from -32.9% to 4.6%.

Compared with Cc1cc(-c2ccc(C(C)C)c(S(=O)(=O)N3CCOc4ccccc43)c2)on1, Cc1ccc(-c2cc(C(=O)NCc3ccc4c(c3)OCO4)no2)cc1 is lower in “hERG current change (%, negative = inhibition) at 10uM” value: 20.2% for the first, -0.641% for the second.

Going from CCOC(=O)c1cc2sccc2n1CC(=O)Nc1ccc(OC)cc1OC to COc1ccc([N+](=O)[O-])cc1NC(=O)C(C)OC(=O)CN1C(=O)C2CC=CCC2C1=O (stereo not drawn), the “hERG current change (%, negative = inhibition) at 10uM” value falls from 0.145% to -25.9%.

First: Cc1oc2ccc(O)c(CN3CCOCC3)c2c1C(C)O (stereo not drawn)
Second: O=C(Nc1ccc(N2CCOCC2)cc1)c1ccc(S(=O)(=O)N2CCCCC2)cc1
The “hERG current change (%, negative = inhibition) at 10uM” value of the first is higher: 2.88% for the first, -1.58% for the second.

Going from Cc1ccc(S(=O)(=O)CCC(=O)OCC(=O)Nc2cc(F)ccc2C)cc1 to Cc1ccc(CNC(=O)CS(=O)(=O)Cc2nc(-c3ccc(C)cc3)oc2C)cc1, the “hERG current change (%, negative = inhibition) at 10uM” value rises from 9.01% to 12.1%.

Going from COc1cc(NC(C)=O)c2ncccc2c1[N+](=O)[O-] to Cc1cc([N+](=O)[O-])ccc1NC(=O)CSc1nnc(C)n1C, the “hERG current change (%, negative = inhibition) at 10uM” value rises from -5.4% to 16.3%.

First: O=C(CCN1C(=O)/C(=C/c2cccs2)SC1=S)NNC(=O)c1cccc(O)c1
Second: O=C(NC(=O)c1cccc(F)c1)Nc1nc(-c2ccc(F)cc2)cc(C(F)(F)F)n1
The “hERG current change (%, negative = inhibition) at 10uM” value of the first is lower: 8.81% for the first, 23.5% for the second.

Compared with Cc1ccc(S(=O)(=O)c2nc(-c3cccs3)oc2NCc2cccnc2)cc1, Cc1noc(NS(=O)(=O)c2ccc(NC(=O)/C=C/c3ccc(C(C)C)cc3)cc2)c1C is higher in “hERG current change (%, negative = inhibition) at 10uM” value: -18.3% for the first, 14.9% for the second.

First: O=C(CSc1ncnc2c1cnn2CCc1ccccc1)Nc1cccc(C(F)(F)F)c1
Second: O=C(NC(=S)Nc1cccc2cnccc12)c1ccccc1
The “hERG current change (%, negative = inhibition) at 10uM” value of the first is lower: -3.6% for the first, 13.8% for the second.

First: CCN(CC)CCNC(=O)C(=O)NCC1OCCN1S(=O)(=O)c1cccs1 (stereo not drawn)
Second: COc1ccc(COC(=O)C2CCN(S(=O)(=O)c3cccs3)CC2)cc1
The “hERG current change (%, negative = inhibition) at 10uM” value of the first is higher: 9.64% for the first, -0.0881% for the second.

First: CCOC(=O)c1c(NC(=O)CN2C(=O)NC3(CCCCC3C)C2=O)sc(C(=O)N(C)C)c1C (stereo not drawn)
Second: CCOC(=O)N1CCC(NC(=O)CN2C(=O)CSc3nc(C)cc(C)c32)CC1
The “hERG current change (%, negative = inhibition) at 10uM” value of the first is lower: -37.6% for the first, 4.42% for the second.

First: COc1cc(=O)n(C)c2cc(N(C)C)ccc12
Second: COc1cc(/C=C/C2=NNC(=O)CC2)cc(OC)c1OC
The “hERG current change (%, negative = inhibition) at 10uM” value of the first is higher: 18.9% for the first, 10.8% for the second.

Going from CCOC(=O)c1nn(C)c(C)c1Cl to CCCC(CCC(=O)OC)(C(=O)OCC)c1csc(N)n1 (stereo not drawn), the “hERG current change (%, negative = inhibition) at 10uM” value falls from 9.88% to -7.65%.

First: Cc1cccc(N(C(=O)Cn2nnc(-c3ccc(C)o3)n2)C(C(=O)NC2CCCC2)c2ccncc2)c1 (stereo not drawn)
Second: COc1ccc(-n2nc(C(=O)NCC(=O)N3CCN(c4ccccn4)CC3)c3ccccc3c2=O)cc1
The “hERG current change (%, negative = inhibition) at 10uM” value of the first is higher: 2.73% for the first, -34.3% for the second.

First: C=CCOC(=O)C1=C(C)NC(=O)NC1c1ccc(O)cc1 (stereo not drawn)
Second: CC(=O)c1c(C)[nH]c(C(=O)COC(=O)CCCOc2ccccc2)c1C
The “hERG current change (%, negative = inhibition) at 10uM” value of the first is lower: 15.4% for the first, 18.7% for the second.

Going from Cc1cc2nnc(SC(C)C)n2c2ccccc12 to CCOc1ccccc1C(=O)NC(C(=O)NCc1ccc(F)cc1)C(C)C (stereo not drawn), the “hERG current change (%, negative = inhibition) at 10uM” value falls from -9.49% to -14.7%.

Compared with CCCNc1c(NC(=O)c2ccc3c(c2)OCO3)c(=O)oc2ccccc12, Cc1cc(NC(=O)CCOc2ccccc2)no1 is lower in “hERG current change (%, negative = inhibition) at 10uM” value: 11.8% for the first, -2.42% for the second.

First: O=C(Cn1c2[n+](c3ccccc31)CC(O)CS2)c1ccccc1.[Br-] (stereo not drawn)
Second: O=C(CC(CC(=O)c1ccccc1)C(=O)O)c1ccccc1
The “hERG current change (%, negative = inhibition) at 10uM” value of the first is lower: 1.09% for the first, 17% for the second.

Compared with Cc1ccc2oc(C(F)(F)C(F)F)cc(=O)c2c1, O=C(NCc1nc(-c2ccc(Cl)cc2)no1)c1ccco1 is lower in “hERG current change (%, negative = inhibition) at 10uM” value: -1.7% for the first, -12.7% for the second.
